# Measurements as given in PubChem BioAssay (NCI).
#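 Each compound was tested at five concentrations against cells in 96-well plates for 48 hours. GI50 marks 50% less growth. Definition used: TGI = concentration required for complete inhibition of growth.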
# Test system: NCI-H322M lung
# Assay: NCI anticancer screen, dose series, 48 h
SMILES,TGI [µM],GI50 [µM]
COC(COC(=O)N1CCN(C=O)CC1)C1=C(N2CC2)C(=O)C(C)=C(N2CC2)C1=O (stereo unspecified),5.41,–
COc1ccccc1NC(=O)C1=C(C)NC(C)=C(C(=O)Nc2ccccc2OC)C1c1ccc([N+](=O)[O-])cc1,> 100,–
CCCCCCCCCc1cc(=O)c2c(O)cccc2o1,> 100,–
CCOC(=O)[C@H](CCCNC(=O)OC(C)(C)C)NCc1ccc(OC)c(OC)c1,> 100,–
COc1ccc(C[N+]23C(CC[C@H]2c2ccccc2)CC[C@H]3c2ccccc2)cc1 (stereo partly specified),> 100,–
CO[C@H]1[C@@H](O)[C@@H](C)O[C@@H](O[C@H]2CC[C@@]3(C)[C@H](CC[C@@H]4[C@@H]3CC[C@]3(C)[C@@H](C5=CC(=O)OC5)[C@@H](OC(C)=O)C[C@]43O)C2)[C@@H]1O,0.198,–
COc1ccc(C(=O)C(CO)Oc2ccccc2OC)cc1OC (stereo unspecified),> 100,–
C=CCn1c(=O)n(CC=C)c(=O)n(CC=C)c1=O,> 100,–
Nc1ccncc1/C=C1/C(=O)Nc2ccccc21,> 100,29.7
CC1=C(Br)C(Br)=C(C)S1=O,34.5,–
CN(C)c1ccc2nc3ccc(=O)cc-3sc2c1,30.2,10.5
COc1ccnc2c1C(=O)c1nc3ccccc3c3ccnc-2c13,1.2,–
O=C(NCCCNC(=O)c1ccc2c(O)c(O)ccc2c1)c1ccc2c(O)c(O)ccc2c1,> 100,–
Cc1cc(C)n(CCNCCn2nc(C)cc2C)n1,> 100,–
N#CC(C(=O)/C(=N/Nc1nc(=S)[nH]n1N)C(C#N)c1ccccc1)c1ccccc1 (stereo unspecified),> 100,–
CC(C)=CCS(=O)c1ccccc1NC1=CC(=O)CC(C)(C)C1 (stereo unspecified),> 100,–
C#CCn1ncc2c(SCc3ccccc3)ncnc21,> 100,–
O=C(CN(C1CCCCC1)C1CCCCC1)Nc1ccc(S(=O)(=O)c2ccc(NC(=O)CN(C3CCCCC3)C3CCCCC3)cc2)cc1,2.9,1.53
COn1cc(C=O)c2ccccc21,> 100,–
Cc1[nH]n(-c2cccc(Cl)c2)c(=O)c1/C=C1\C=Nc2ccc(Br)cc21,> 100,7.03
CCC1OC2C(CC=C(C)C)=C3OC(C)(O)C(C)(CC)C(OC(=O)c4ccccc4)C3=C3OC(=O)C=C1C32 (stereo unspecified),> 100,–
Cn1ccc(C(=O)NCCOCCNC(=O)c2ccn(C)c(=O)c2O)c(O)c1=O,> 100,–
O=c1[nH]cc(COCC(F)(F)C(F)(F)C(F)(F)C(F)F)c(=O)[nH]1,> 100,–
COc1ccc(/C=c2/sc3n(c2=O)C(c2ccc(OC)c(OC)c2)C2=C(N=3)c3cc(F)ccc3OC2)cc1 (stereo unspecified),> 88.8,18.7
Cc1sc2nc(NCCc3c[nH]c4ccc(Cl)cc34)[nH]c(=O)c2c1C,17.3,3.51
CCOC(=O)c1[nH]c(COC(C)=O)c(CCCOC(C)=O)c1CCCOC(C)=O,> 100,–

SMILES,TGI [µM],GI50 [µM]
O=C(CCC/C(CC(=O)c1ccc(Br)cc1)=N\O)Nc1ccccc1,> 100,–
Clc1ccc(Cl)c(Nc2ccnc(SCc3ccccc3)n2)c1,> 100,–
Nc1nc(Cl)cc(NCCO)n1,> 100,–
COc1cccc(CCn2c(N)c(-c3ccccc3)c3ccc([N+](=O)[O-])cc3c2=O)c1,9.15,–
N#Cc1sc2nc(/C=C3/C=CC=CC3=O)c(O)n2c1N,> 100,–
Cc1cn2c(/C=C3/C(=O)Nc4ccccc43)c(-c3ccc(Cl)cc3)nc2s1,14.9,7.64
CC(=O)Oc1ccccc1-c1cc2ccccc2oc1=O,> 100,–
O=C1NC(=O)C(CCO)(c2ccccc2)C(=O)N1,> 100,–
CC(C)(C)C(=O)/C=C/c1ccc(Oc2ccccc2)cc1,45.9,–
CCN(CC)CCNCC(=O)Oc1ccc(/C=C/C(=O)CC(=O)/C=C/c2ccc(OC(=O)CNCCN(CC)CC)c(OC)c2)cc1OC,25.1,10.8
Cc1ccc2c(c1CCCC(C)(C)O)C(=O)C(=O)C(C(C)C)=C2O,> 100,–
COC(CN(C(=O)c1ccccc1)C1CCC2(SCCS2)c2[nH]c3ccccc3c21)OC (stereo unspecified),> 100,–
CC1=CC(C2/C(=N/O)C=C(C)CC2(C)C)C(O)C(C)(C)C1 (stereo unspecified),32.8,–
O=C1C(Cl)C(c2ccccc2)N1n1cnc2ccccc2c1=O (stereo unspecified),> 100,–
O=C1c2cc3c(cc2CC12Cc1cc4c(cc1C2=O)CCC4)CCCC3 (stereo unspecified),> 100,–
c1ccc2c3ccn4cc5c(cc4c-3nc2c1)CCCC5,11.5,2.75
COc1ccccc1/C=C/c1cnccn1,> 10,–
NC1CCCC[C@H]1N.N[C@@H]1CCCC[C@@H]1N.O=C(P(=O)([O-])[O-])P(=O)([O-])[O-].[Pt+4].[Pt+4],> 100,> 100
O=C(Nc1ccc(Cl)cc1F)c1cc(Br)ccc1O,> 31,0.696
CC1=C(C(=O)Nc2c(C)cccc2C)C(c2ccccc2Cl)C(C(=O)Nc2c(C)cccc2C)=C(C)N1,> 100,–
Cc1ccc(Nc2nc(N)c(C(=O)c3ccc(C#N)cc3)s2)cc1,> 100,0.907
O=c1cc(-c2ccccc2)[nH]c2cc3c(cc12)OCO3,> 100,–
O=[N+]([O-])c1ccc(-n2nnc(C3=NCCCN3)c2-c2ccc(Cl)cc2)cc1,> 100,–
COC(=O)C12C3C4C5(C(=O)OC)C(C1C35C(=O)N(C(C)C)C(C)C)C42C(=O)N(C(C)C)C(C)C (stereo unspecified),> 50,–
CN(Nc1cc(=O)[nH]c(=O)[nH]1)c1ccccc1,> 100,–
O/N=C\c1c(O)ccc2ccccc12,> 100,–

SMILES,TGI [µM],GI50 [µM]
O=C1NC(=O)C(c2c[nH]c3cc(Br)ccc23)=C1c1cn(C(c2ccccc2)(c2ccccc2)c2ccccc2)cn1,52.8,–
O=C(CCCN1CC=C(n2c(=O)[nH]c3ccccc32)CC1)c1ccc(F)cc1,> 100,71
CCOC(=O)CC1CCN(C(=O)c2ccccc2)C2Cc3c([nH]c4ccccc34)C12C[N+](=O)[O-] (stereo unspecified),> 100,–
CCN(CC)c1ccc2cc(-c3nnc(-c4ccccc4)o3)c(=O)oc2c1,> 100,–
Cc1ccc(S(=O)(=O)C2=Cc3ccc(C(F)(F)F)cc3C2(O)c2cccc(C(F)(F)F)c2)cc1 (stereo unspecified),14.5,–
CCOC(=O)C1=C(Nc2cccc(OC)c2)OCC1=O,> 100,–
NC(N)=N/N=C/c1cc(Cl)cc(Cl)c1O,> 100,–
CC(=O)OCC1OC(Nc2ncc(-c3ccc(C)cc3)s2)C(OC(C)=O)C(OC(C)=O)C1OC(C)=O (stereo unspecified),> 100,–
CN(C)C(=O)OCOC(=O)N(C)C,> 100,–
Cc1c(C2Nc3ccccc3C2C)[nH]c2ccccc12 (stereo unspecified),36.9,16.1
O=C(O)c1c(-c2nccc3ccccc23)[nH]c(-c2ccccc2)c1S(=O)(=O)O,> 100,–
O=C(O)c1ccc(NNc2cc(=O)[nH]c(=O)[nH]2)cc1,> 100,–
CCN1C(=O)N(CC)C2C1NC(=S)N2/N=C/C=C/c1cccs1 (stereo unspecified),> 100,0.67
COc1ccc(CNc2c3ccccc3nc3ccccc23)cc1OC,7.69,2.08
CCOC(=O)c1csc(NC(=O)C(C)N2CCCCC2)n1 (stereo unspecified),> 100,–
Fc1ccc(Nc2cc(-n3nnc4ccccc43)nc3ccccc23)cc1,> 70.6,20.2
CN=NN(C)C(=O)NC,> 100,–
NC(=O)C(=CNc1nc(-c2ccc(Cl)c(Cl)c2)cs1)C(N)=O,> 100,29.6
COc1cc2c(cc1OCc1ccccc1)CNCC2,> 100,–
CCOC(=O)CC1c2ccc(O)cc2OC(=O)C1c1ccc([N+](=O)[O-])cc1 (stereo unspecified),> 100,–
O=C(O)Cc1c(O)ccc2ccccc12,> 100,–
N#CC(C#N)=c1[nH]c2cccc3c2-c2c(cccc2c3=C(C#N)C#N)[nH]1,> 100,–
Cc1cc(NC(=O)c2ccc(C)c(Nc3nccc(-c4cccnc4)n3)c2)cc(-n2cnc(C)c2)c1,13.8,3.56
COc1ccc2c(c1)CN1C(=N2)CSC1c1cc([N+](=O)[O-])ccc1Cl (stereo unspecified),> 100,–
O=c1c(-c2ccccc2)c(SCCCN2CCN(c3cccc(Cl)c3)CC2)n(-c2ccccc2)c(=S)n1-c1ccccc1,> 100,–
C/C(=C1/CCCC2(N=NCC2c2ccccc2)C1=O)c1ccccc1 (stereo unspecified),> 100,–

SMILES,TGI [µM],GI50 [µM]
O=C(O)c1ccccc1-c1ccccc1C(=O)Nc1ccc2c(c1)Cc1cc(F)ccc1-2,70.8,–
N#Cc1c(-c2ccccc2)[nH]c2ccccc2c1=O,> 100,–
CCN(CC)CC(C)(C)C(=O)/C=C/c1ccc(Cl)c(Cl)c1,3.08,1.59
Cc1cc(C)cc(C(=N)c2ccccc2Cc2cccc3ccccc23)c1,37.6,–
Cc1cccc(NC(=O)/C=C/c2ccc(N(CCC#N)CCC#N)cc2C)c1,> 100,–
O=c1[nH]c2cc(Cl)ccc2n1C1CCN(CCCC(c2ccc(F)cc2)c2ccc(F)cc2)CC1,3.63,1.84
CCOC(=O)CCc1c(C)c2c(OC(C)=O)cc(OC(C)=O)cc2oc1=O,> 100,–
NC(CCC(=O)NC(CSC(=O)N(O)c1ccc(Br)cc1)C(=O)NCC(=O)O)C(=O)O (stereo unspecified),> 100,–
O=C(CCC(=O)Nc1cccc(Cl)c1)CC(=O)c1ccc(Cl)cc1,> 100,–
COC(=O)c1ccc(/C=C2\N=C(C)OC2=O)cc1,> 100,–
COc1ccc2c(c1C)C(=O)C(O)(CC=C(C)C)O2 (stereo unspecified),> 100,–
COc1cc2c(cc1OC)C13CCN4CC5=CCOC6CC(=O)N2C1C6C5CC43O (stereo unspecified),> 100,–
COc1c(C)c2c(c(C)c1Cl)Oc1c(C=O)c(O)c(Cl)c(C)c1C(=O)O2,> 100,–
O=C(C[n+]1ccccc1)NNC(=O)/C(=C/c1ccc2c(c1)OCO2)NC(=O)c1ccccc1,> 100,–
COc1cccc(OC)c1/C=C1\OC(=O)c2cccc(OC)c21,> 100,–
CCOC(=O)C(N=Nc1ccc(S(N)(=O)=O)cc1)C(C)=O (stereo unspecified),> 100,–
N#C/C(=C\c1ccc(O)c(O)c1)C(N)=O,> 100,–
CC(=O)c1c(CBr)n([O-])c2ccccc2[n+]1=O,31.9,17.7
C[C@]12CCC(=O)C=C1CC[C@@H]1C2CC[C@]2(C)c3nn(-c4ccc(F)cc4)nc3CC12 (stereo partly specified),> 100,–
CC1=C(C(N)=O)C(c2ccncc2)C(C#N)=C2SCC(=O)N12 (stereo unspecified),> 100,–
O=C(O)c1cc(O)c2c(c1)C(C1c3cc(C(=O)O)cc(O)c3C(=O)c3c(OC4OC(CO)C(O)C(O)C4O)cccc31)c1cccc(OC3OC(CO)C(O)C(O)C3O)c1C2=O (stereo unspecified),> 100,> 100
CC1(C)c2ccccc2C(=O)C12CCC(=O)CC2,> 100,–
NS(=O)(=O)c1ccc(-n2c(-c3cccs3)nc3ccc(I)cc3c2=O)cc1,57.6,–
COC1=C(Br)[C@H](O)[C@@]2(C=C1Br)CC(C(=O)NCCCCCN=C(N)N)=NO2,> 10,–
C/C(=N\Nc1cc(CN2CCCC2)c(-c2ccc(Cl)cc2)nn1)C(=O)O,> 100,–
